{
  "source": "PubChem BioAssay AID686979",
  "about": "(National Center for Advancing Translational Sciences (NCATS), 2013)",
  "note": "Where “and” joins values, the source holds several entries; their conditions need not be identical. Equal entries are not always repeated. The campaign covered roughly 420,000 compounds. About 50,000 (12%) were called active. The inconclusive results got no clear call from the source; some entries with a clear call stand among them for comparison. The call rests on the fitted dose curve; in most records, active means well fitted inhibition curve with a large enough effect; inconclusive means small, poorly fitted or top-dose-only effect; inactive means flat fitted curve, though single readings scatter. A potency beside an inconclusive call is a rough fit, not a confirmed value. On the % scale 0 is the no-effect control and ±100 the full control effect; potency means the concentration at half of the fitted maximal effect; tags describe the fitted curve by direction and shape.",
  "data": [
    {"test": "qHTS for Inhibitors of human tyrosyl-DNA phosphodiesterase 1 (TDP1): qHTS in cells in presence of CPT; further: nearly all actives have a fitted effect of over 55% in size", "settings": "chicken DT40 Tdp1-/-;hTDP1 cells + 20 nM CPT, ATP luminescence, 48 h; activity change, negative = growth inhibition: at 46.2 µM (top of the series) unless noted", "method_in_brief": "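Chicken DT40 Tdp1-/- cells complemented with human TDP1, 400 cells/well, exposed to compounds plus 20 nM camptothecin for at least 48 h at 37 C; viability read as ATP content by CellTiter-Glo luminescence.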", "values": [
      {"smiles": "CCCCc1nc2ccccc2c(=O)n1-c1ccc(O)cc1", "Potency": "inconclusive: 29.1 µM [inhibitor, single point]"},
      {"smiles": "NC(=O)c1ccc(N)nc1", "Potency": "active: 2.91 µM and active: 5.8 µM"},
      {"smiles": "CN1C(=O)C(=Cc2ccccc2OS(=O)(=O)c2ccccc2)C(=O)N(C)C1=O", "Potency": "inconclusive: 18.4 µM [inhibitor, single point]"},
      {"smiles": "Cc1cccc(CCNCc2cc3ccc(C)cc3[nH]c2=O)c1", "Potency": "active: 23.1 µM"},
      {"smiles": "O=[N+]([O-])c1cccc(O)c1", "Potency": "inconclusive: 29.1 µM [inhibitor, single point]"},
      {"smiles": "COC(=O)C1=C(c2cc3ccccc3s2)C[C@@H]2CC[C@H]1N2C(=O)N1CCOCC1", "Potency": "active: 9.2 µM"},
      {"smiles": "COc1ccc(N2CCN(c3ncnc4c3nc3n4CCCCC3)CC2)cc1", "Potency": "inconclusive: 29.1 µM [inhibitor, single point]"},
      {"smiles": "CCOc1cccc(=NC2CCCCC2)c2c(C)n(C)c(C)c12", "Potency": "active: 4.11 µM"},
      {"smiles": "COC(=O)C1=C(c2ccc3ccccc3c2)C[C@@H]2CC[C@H]1N2C(=O)NCc1ccc(C(F)(F)F)cc1", "Potency": "inconclusive: 29.1 µM [inhibitor, single point]"},
      {"smiles": "C[C@]12CCC3C(CC[C@H]4C[C@H](O)CC[C@]34C)C1[C@@H](O)[C@@H](O)[C@@H]2O", "note": "(some centres not stated)", "activity change, negative = growth inhibition": "inactive: 10.7%"},
      {"smiles": "Cc1cccc(-n2c(/C=C/c3c(C)[nH]c4ccccc34)nc3ccccc3c2=O)c1", "Potency": "inconclusive: 11.6 µM [inhibitor, partial curve]"},
      {"smiles": "CCCCCCCCCCCCCCCCOC[C@@H](COP(=O)([O-])OCC[N+](C)(C)C)OC(C)=O", "Potency": "inconclusive: 3.26 µM [inhibitor, single point]"},
      {"smiles": "O=C(c1ccc2c(c1)ncn2C1CCCCC1)N1CCC2(CC1)OCCO2", "Potency": "active: 6.51 µM"},
      {"smiles": "CCN1CCCC(OC(=O)C(c2ccccc2)c2ccccc2)C1", "note": "(configuration not stated)", "Potency": "inconclusive: 12.8 µM [inhibitor, single point] and inconclusive: 18.4 µM [inhibitor, single point]"},
      {"smiles": "CCN(CC)CCOC(=O)C(C)(c1ccccc1)c1ccccc1", "Potency": "inconclusive: 23.7 µM [inhibitor, single point]"},
      {"smiles": "CCCCSP1(=S)NCCCN1", "activity change, negative = growth inhibition": "inactive: -25.5%"},
      {"smiles": "Cc1ccc(Sc2ccc(N3CCCC(C(=O)Nc4ccc(Cl)cc4)C3)nn2)cc1", "note": "(configuration not stated)", "Potency": "inconclusive: 20.6 µM [inhibitor, single point]"},
      {"smiles": "COc1cc(C(c2c(O)c3ccccc3oc2=O)c2c(C)n(C)n(-c3ccccc3)c2=O)ccc1OCC(=O)O", "note": "(configuration not stated)", "activity change, negative = growth inhibition": "inactive: 3.81%"},
      {"smiles": "Cc1c(C(=O)Nc2ccc(Br)cc2F)oc2ccc(S(=O)(=O)N3CCCCC3)cc12", "Potency": "inconclusive: 2.06 µM [inhibitor, full curve]"},
      {"smiles": "CCN(CC)S(=O)(=O)c1ccc(NN=C(C#N)C#N)cc1", "Potency": "inconclusive: 29.1 µM [inhibitor, single point]"},
      {"smiles": "O=C(c1cc(F)ccc1F)C1CCCN(Cc2ccc3nonc3c2)C1", "note": "(configuration not stated)", "activity change, negative = growth inhibition": "inactive: 1.37%"},
      {"smiles": "COc1ccc(CCn2c(NN=C3CCCCC3)nc3c2c(=O)[nH]c(=O)n3C)cc1", "Potency": "inconclusive: 29.1 µM [inhibitor, single point]"},
      {"smiles": "O=C(Nc1ccc(Cl)cc1C(=O)c1ccccc1)c1ccccc1Br", "Potency": "inconclusive: 18.4 µM [inhibitor, single point]"},
      {"smiles": "CN1CCc2cc(Cl)c(O)cc2[C@H]2c3ccccc3CC[C@@H]21", "Potency": "inconclusive: 29.9 µM [inhibitor, single point]"},
      {"smiles": "CCn1ccnc1CN1CCCC(C(=O)c2ccc(SC)cc2)C1", "note": "(configuration not stated)", "Potency": "inconclusive: 14.6 µM [inhibitor, partial curve]"},
      {"smiles": "CC1Oc2cc3c(-c4c(O)cc(O)c5c(O)c6c(cc45)OC(C)C(C)C6=O)c(O)cc(O)c3c(O)c2C(=O)C1C", "note": "(configuration not stated)", "Potency": "active: 0.0164 µM"},
      {"smiles": "COc1ccc(Cl)cc1C(=O)Nc1ccc([N+](=O)[O-])cc1Cl", "Potency": "inconclusive: 31.6 µM [inhibitor, single point]"},
      {"smiles": "Cc1ccc(S(=O)(=O)N(C)N=O)cc1", "activity change, negative = growth inhibition": "inactive: -14.6%"},
      {"smiles": "COc1cc(N2CCOCC2)ccc1/C=C1\\C(=O)NC(=O)N(Cc2cccs2)C1=O", "activity change, negative = growth inhibition": "inactive: -0.135%"},
      {"smiles": "Cc1ccc(Cn2c(C)c3cnn(CC(=O)N4CCC5(CC4)OCCO5)c(=O)c3c2C)cc1", "Potency": "active: 20.6 µM"},
      {"smiles": "Cc1cccc(-c2nc3ccc(C(=O)N4CCC5(CC4)OCCO5)cc3nc2-c2cccc(C)c2)c1", "Potency": "inconclusive: 23.1 µM [inhibitor, single point]"},
      {"smiles": "O=C(Oc1ccccc1)N1CCC[C@@]2(CCN(Cc3cc(C(F)(F)F)cc(C(F)(F)F)c3)C2)C1", "Potency": "inconclusive: 29.1 µM [inhibitor, single point]"},
      {"smiles": "COC(=O)C1=C(c2ccc(F)cc2OCc2ccccc2)C[C@@H]2CC[C@H]1N2C(=O)NCCOc1ccc(OC)cc1", "Potency": "inconclusive: 18.4 µM [inhibitor, single point]"},
      {"smiles": "COc1ccc(CN2C(=O)NC(=O)/C(=C/c3ccc([N+](=O)[O-])s3)C2=O)cc1", "Potency": "active: 10.3 µM"},
      {"smiles": "C[C@@]12CCC(OS(=O)(=O)O)C[C@@H]1CCC1C2CC[C@]2(C)C(=O)CCC12", "note": "(some centres not stated)", "activity change, negative = growth inhibition": "inactive: -1.87%"},
      {"smiles": "C[C@]12CC[C@@H](O)C[C@@H]1CC[C@@H]1[C@@H]2CC[C@]2(C)C=CC[C@@H]12", "Potency": "inconclusive: 0.082 µM [inhibitor, full curve, poor fit]"},
      {"smiles": "Cc1c(Cl)cccc1NC(=O)CN1C(=O)C(C)N=C(c2ccccc2)c2ccccc21", "note": "(configuration not stated)", "activity change, negative = growth inhibition": "inactive: -15%"},
      {"smiles": "COC(=O)C1=C(c2cc3ccccc3o2)C[C@@H]2CC[C@H]1N2C(=O)NCc1ccc(F)cc1", "Potency": "inconclusive: 18.4 µM [inhibitor, single point]"},
      {"smiles": "O=c1[nH]c(=S)[nH]c(O)c1N=Nc1ccc2c(c1)OCO2", "activity change, negative = growth inhibition": "inconclusive: -32.2% [inhibitor]"},
      {"smiles": "CC1CCCN(CCCNC(=O)c2ccc3c(c2)N(Cc2cccc(Cl)c2)C(=O)c2ccccc2S3=O)C1", "note": "(configuration not stated)", "Potency": "inconclusive: 18.4 µM [inhibitor, single point]"},
      {"smiles": "CCC(=NCCc1c[nH]c2ccccc12)c1c(O)n(-c2ccc(C)cc2)c(=O)[nH]c1=O", "Potency": "inconclusive: 25.9 µM [inhibitor, single point]"},
      {"smiles": "O=[N+]([O-])c1cc(O)c(O)c([N+](=O)[O-])c1", "Potency": "inconclusive: 33.5 µM [inhibitor, single point]"}
    ]}
  ]
}
